# Data published in the RNAGym collection of RNA variant scans (doi:10.1093/nar/gkz1192).
# Read counts are not given, so values of variants with three or more changes are uncertain.
# B1: CPEB3 Ribozyme (parent)
# chain: UAACAGGGGGCCACAGCAGAAGCGUUCACGUCGCAGCCCCUGUCAGAUUCUGGUGAAUCUGCGAAUUCUGCUGUAUAUCUC
# Variants of: B1
# Assay: self-cleavage, relative activity (ratio to wild type); higher = more cleavage; in vitro, sequencing
# How it was run: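 Barcoded CPEB3 ribozyme mutants, produced by rounds of error-prone PCR, self-cleaved while being transcribed with T7 RNA polymerase for 5 hours at 37°C and during a subsequent 15 min DNase I step before EDTA was added. Sequencing of template-switched cDNA on Illumina gave cleaved and total reads, and DNA sequencing assigned barcodes to variants. Each variant's relative activity is its cleaved/total read fraction divided by the unmutated ribozyme's fraction, averaged across three batches. A variant needed a minimum of 5 reads.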
row,Variant,self-cleavage
1,A47G A65G U78C U80A,0.42
2,A47G C50A U54C U60C,0.09
3,A47G C59U U69A,0.21
4,A47G G53A U72C,1.13
5,A47G U48A A64U U74C,0.12
6,A47G U48C A56C C71U,0.16
7,A47G U48C A56G U76A,0.4
8,A47G U48C G53U,0.26
9,A47G U48C U58A U72A,0.14
10,A47G U48C U60G,0.14
11,A47G U48C U69A,0.1
12,A47G U48G U60C,0.17
13,A47G U49A C50U U80C,0.43
14,A47G U49C A57G A64G,0.1
15,A47G U49C A57U A75G,0.36
16,A47G U49C G55U U74G,0.41
17,A47G U49C U76C,0.43
18,A47G U51A G63U,1.11
19,A47G U51C G63A A77G,0.71
20,A47G U51C U54C U78C,0.67
21,A47G U51C U67C U76C,0.49
22,A47G U51C U72C,1.27
23,A47G U54A U58A U60C,0.41
24,A47G U54A U66C,0.22

row,Variant,self-cleavage
1,A47G U54A U72C,1.17
2,A47G U54C U69A,0.62
3,A47G U54G A56U U76C,0.22
4,A47G U58C C62U,0.14
5,A47G U60C U66C,0.21
6,A47G U66A U78C,0.3
7,A47G U66C U80C,0.26
8,A47G U67C C68A G73A,0.36
9,A47G U67C U74C A75G,0.29
10,A47G U67C U78C,0.14
11,A47G U69A U72A,0.34
12,A47G U74C U80A,1.21
13,A47U A56G A57G U60A,0.16
14,A47U A56G U60C,0.11
15,A47U A57G A65U G73A,0.18
16,A47U A57G U74C,0.23
17,A47U U51C U69A U76A,0
18,A47U U54C U60C U74C,0.46
19,A47U U78C U80C,0.4
20,U48A A56U A77G U80C,0.21
21,U48A U49C U60A U67C,0.1
22,U48A U49C U80A,0.53
23,U48A U51C C62U,0.18
24,U48A U54A G63A,0.32

row,Variant,self-cleavage
1,U48A U60A U80G,0.16
2,U48C A56C A64U,0.05
3,U48C A56C C71G,0.12
4,U48C A56G A64G,0.3
5,U48C A56G U67A,0.17
6,U48C A56U U67C,0.23
7,U48C A57G A65G U69C U74C,0.19
8,U48C A64U A65U U67A,0.2
9,U48C A64U A75U,0.28
10,U48C A65C C71U U78A,0.1
11,U48C A65G A77U,0.32
12,U48C C50U A57U,0.41
13,U48C G52C A56G,0.48
14,U48C G55C U74C,0.6
15,U48C G55U U72C,0.52
16,U48C U49C A65G,0.08
17,U48C U49C U51G A64U,0.06
18,U48C U49C U60C U66C U72A U80C,0.15
19,U48C U51A U60C U67C,0.35
20,U48C U51C A56G,0.48
21,U48C U51C A56G U69C,0.21
22,U48C U51C U66C,0.23
23,U48C U51C U72C C79A,0.4
24,U48C U51C U76C,0.4

row,Variant,self-cleavage
1,U48C U54C A56G U66C,0.16
2,U48C U54C C68G,0.33
3,U48C U58A U60C U72G,0.13
4,U48C U58A U78A U80A,0.36
5,U48C U60A U72C U78C,0.24
6,U48C U60C A77G,0.14
7,U48C U60C C68U U72C U80C,0.17
8,U48C U66C U67C U69C U76C,0.09
9,U48C U66C U80C,0.13
10,U48C U67C U72C U76G,0.08
11,U48C U72C A75G,1.04
12,U48C U72C U78C,0.88
13,U48G A56G U60A A64G U66A U76A U78C,0.06
14,U48G A57G A75U,0.67
15,U49A A56G A64U U69A A77G U80C,0.13
16,U49A A56G C62U U66C U67A,0.09
17,U49A C50U C62U A64U,0.26
18,U49A G53C G73U A75U,1.19
19,U49A G55A U67C,0.2
20,U49A G63A C79A,0.81
21,U49A U51A U54G,0.16
22,U49A U51A U66C,0.19
23,U49A U51A U67C A77U,0.11
24,U49A U51C A57G U66A U76A,0.17

row,Variant,self-cleavage
1,U49A U51C G70U,0.57
2,U49A U54C U60A C62G,0.17
3,U49A U58C U69C,0.32
4,U49A U60A U66C U80G,0.15
5,U49A U60C U66A U72G,0.42
6,U49A U67C C68A,0.22
7,U49A U69C U74C,0.76
8,U49A U78A C81U,1.03
9,U49C A56G U60C U80A,0.5
10,U49C A56G U72A,1.07
11,U49C A56G U72G,0.5
12,U49C A56G U78C,1
13,U49C A56U U80A,0.85
14,U49C A57G A77G,0.3
15,U49C A57G U67A C68G A75U,0
16,U49C A64G U72A U80C,0.19
17,U49C A64U U69A,0.18
18,U49C A75G U78C,0.09
19,U49C G52A A56G U60A A64G,0.41
20,U49C G52C G63U U72C,0.52
21,U49C G52U G70C,0.17
22,U49C G53C U74A,0.73
23,U49C G55A A57G,0.15
24,U49C G63U U80C,0.57

row,Variant,self-cleavage
1,U49C G70A U80C,0.19
2,U49C G70U A77G,0.13
3,U49C U51A U66C,0.23
4,U49C U51C A57U U74A,0.22
5,U49C U51C A65G U80C,0.1
6,U49C U51G U76C,0.35
7,U49C U54A A56G A57G A64G U80C,0.24
8,U49C U54C U66C,0.16
9,U49C U54C U69G,0.18
10,U49C U58A U66C,0.36
11,U49C U60A G70A,0.17
12,U49C U66C U78A,0.17
13,U49C U67A U78C,0.32
14,U49C U67A U80A,0.1
15,U49C U67C U80C,0.13
16,U49C U69A G70A,0.17
17,U49C U74C A75G,0.64
18,U49G U51C U76A,0.58
19,U49G U67C U74A,0.14
20,U49G U72C U76C,0.64
21,C50A U54A U80A,1.2
22,C50A U54C C71A,0.18
23,C50A U72A U78C U80C,1
24,C50G U67A U69C,0.11

row,Variant,self-cleavage
1,C50U A65U U67A,0.21
2,C50U U54C U69C,0.51
3,C50U U54G U60C U69A A75G A77G,0.04
4,C50U U60C U66C U80C,0.16
5,C50U U69A U72C,0.32
6,U51A A56U C59U A65G,0.21
7,U51A A57G G63A U66C,0.29
8,U51A A57G U74A,0.93
9,U51A A64G A77G,0.92
10,U51A A64U U72C U76C,0.54
11,U51A C59U A65G,0.22
12,U51A G52U U54A U60A,0.49
13,U51A G63A U67C U78C,0.51
14,U51A U58A U60C U69A U74A U78C,0.54
15,U51A U58C U67G G70A,0.23
16,U51A U60A A64U,0.24
17,U51A U67C A75U,0.45
18,U51A U67C G70A U74C,0.32
19,U51A U67G U76C,0.32
20,U51A U69A U80C,0.62
21,U51A U72A A77G,0.93
22,U51A U72A U76A,0.79
23,U51C A56C U58A G73A,0.25
